Measurements published in article PMC12155096 (International Journal of Molecular Sciences, 2025).
pIC50: −log10 of the molar value. Counter-ions that a name gives are not always drawn. Like-named read-outs stand apart in the source and are kept apart here.

Experiments:
[1] = biological target: Photinus pyralis (firefly) luciferase (Photinus pyralis, UniProt P08659); type: biochemical
human CYP1A2 [2] = biological target: T1, human CYP1A2 (Homo sapiens, UniProt P05177)
T1 sequence (P05177 1-516): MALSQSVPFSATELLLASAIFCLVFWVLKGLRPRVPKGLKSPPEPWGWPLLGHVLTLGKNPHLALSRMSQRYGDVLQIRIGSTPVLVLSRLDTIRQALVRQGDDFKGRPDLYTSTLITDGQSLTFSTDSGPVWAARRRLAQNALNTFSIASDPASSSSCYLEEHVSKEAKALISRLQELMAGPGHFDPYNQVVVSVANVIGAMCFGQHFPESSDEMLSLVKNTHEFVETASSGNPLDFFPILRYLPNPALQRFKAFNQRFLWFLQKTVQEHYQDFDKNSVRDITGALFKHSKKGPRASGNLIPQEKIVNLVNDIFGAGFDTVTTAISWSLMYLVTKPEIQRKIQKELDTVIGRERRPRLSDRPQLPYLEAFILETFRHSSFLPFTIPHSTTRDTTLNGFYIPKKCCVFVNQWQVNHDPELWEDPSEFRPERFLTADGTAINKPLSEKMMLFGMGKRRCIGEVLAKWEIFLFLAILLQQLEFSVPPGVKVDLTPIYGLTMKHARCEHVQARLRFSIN

human CYP2C9 [3] = biological target: T2, human CYP2C9 (Homo sapiens, UniProt P11712); assay: biochemical
human CYP2D6 [4] = biological target: T3, human CYP2D6 (Homo sapiens, UniProt P10635); assay: biochemical; conditions: for pIC50: CYP2D6 IC50
human CYP2C9 [5] = biological target: T2, human CYP2C9; conditions: for CYP2C9 Efficacy (in parenthesis): human
human CYP2C19 [6] = biological target: T4, human CYP2C19 (Homo sapiens, UniProt P33261); conditions: for CYP2C19 Efficacy (in parenthesis): human
human CYP2C19 [7] = biological target: T4, human CYP2C19; assay: biochemical
human CYP2D6 [8] = biological target: T3, human CYP2D6
human CYP1A2 [9] = biological target: T1, human CYP1A2; assay: biochemical
CYP3A4 = CYP3A4 (Homo sapiens, UniProt P08684); assay: biochemical; conditions: CYP3A4 AC50 (half-maximal activity concentration)
[10] = CYP2C19 IC50 (half-maximal inhibitory concentration)
[11] = CYP2C9 IC50 (half-maximal inhibitory concentration)

T2 sequence (P11712 whole entry): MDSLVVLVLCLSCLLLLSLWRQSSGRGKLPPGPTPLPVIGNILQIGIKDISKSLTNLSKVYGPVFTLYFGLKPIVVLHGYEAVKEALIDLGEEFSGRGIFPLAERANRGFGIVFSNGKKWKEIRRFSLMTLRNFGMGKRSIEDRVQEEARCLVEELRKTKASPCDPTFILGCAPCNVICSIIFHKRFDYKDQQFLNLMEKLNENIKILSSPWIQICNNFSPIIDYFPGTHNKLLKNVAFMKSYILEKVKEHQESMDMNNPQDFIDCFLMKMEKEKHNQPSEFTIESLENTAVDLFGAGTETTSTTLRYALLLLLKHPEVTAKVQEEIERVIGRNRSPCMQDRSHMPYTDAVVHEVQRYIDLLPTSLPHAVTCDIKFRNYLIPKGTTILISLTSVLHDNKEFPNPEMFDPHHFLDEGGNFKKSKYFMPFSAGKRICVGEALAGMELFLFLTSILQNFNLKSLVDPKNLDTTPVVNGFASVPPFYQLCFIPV
T4 sequence (P33261 whole entry): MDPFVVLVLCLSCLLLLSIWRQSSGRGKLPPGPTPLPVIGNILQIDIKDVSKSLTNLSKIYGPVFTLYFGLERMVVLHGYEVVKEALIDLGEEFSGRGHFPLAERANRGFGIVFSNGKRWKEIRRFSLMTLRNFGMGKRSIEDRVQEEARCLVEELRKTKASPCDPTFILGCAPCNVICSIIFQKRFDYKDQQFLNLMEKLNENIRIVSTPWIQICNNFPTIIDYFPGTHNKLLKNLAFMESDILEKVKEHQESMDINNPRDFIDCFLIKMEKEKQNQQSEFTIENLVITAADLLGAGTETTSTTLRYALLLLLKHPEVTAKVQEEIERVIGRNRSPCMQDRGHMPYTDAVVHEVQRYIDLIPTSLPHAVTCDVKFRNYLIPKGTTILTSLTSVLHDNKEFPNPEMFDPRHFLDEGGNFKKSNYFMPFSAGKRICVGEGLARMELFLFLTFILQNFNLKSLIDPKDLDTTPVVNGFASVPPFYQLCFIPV
Sequence of Photinus pyralis (firefly) luciferase (P08659 whole entry): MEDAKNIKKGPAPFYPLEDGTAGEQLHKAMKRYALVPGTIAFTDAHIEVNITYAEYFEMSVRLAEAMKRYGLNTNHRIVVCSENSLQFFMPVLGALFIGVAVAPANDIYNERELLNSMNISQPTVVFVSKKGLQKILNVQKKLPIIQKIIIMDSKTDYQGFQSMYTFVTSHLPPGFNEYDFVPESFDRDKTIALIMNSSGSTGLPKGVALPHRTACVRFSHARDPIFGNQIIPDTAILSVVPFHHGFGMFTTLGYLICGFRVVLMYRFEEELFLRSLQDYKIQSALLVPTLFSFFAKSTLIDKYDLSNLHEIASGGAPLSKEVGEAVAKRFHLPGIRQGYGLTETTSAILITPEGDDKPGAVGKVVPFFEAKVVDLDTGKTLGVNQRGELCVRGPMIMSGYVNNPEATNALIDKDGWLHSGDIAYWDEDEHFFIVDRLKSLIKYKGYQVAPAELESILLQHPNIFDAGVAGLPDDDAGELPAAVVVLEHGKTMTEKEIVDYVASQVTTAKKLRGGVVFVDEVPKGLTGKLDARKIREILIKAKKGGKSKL
T3 sequence (P10635 whole entry): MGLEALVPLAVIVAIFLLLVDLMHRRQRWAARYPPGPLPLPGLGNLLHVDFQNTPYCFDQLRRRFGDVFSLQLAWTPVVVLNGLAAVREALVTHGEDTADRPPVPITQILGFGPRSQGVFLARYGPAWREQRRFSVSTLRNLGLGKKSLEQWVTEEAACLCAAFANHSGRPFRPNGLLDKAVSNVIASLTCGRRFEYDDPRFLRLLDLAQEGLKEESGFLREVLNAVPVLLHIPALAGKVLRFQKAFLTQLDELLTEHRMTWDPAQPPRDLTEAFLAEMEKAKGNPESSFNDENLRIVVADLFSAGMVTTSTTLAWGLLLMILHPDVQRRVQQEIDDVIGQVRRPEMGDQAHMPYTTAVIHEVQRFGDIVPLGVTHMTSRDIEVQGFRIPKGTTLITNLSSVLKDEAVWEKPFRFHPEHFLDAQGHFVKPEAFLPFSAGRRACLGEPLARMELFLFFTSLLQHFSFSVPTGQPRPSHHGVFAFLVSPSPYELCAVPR
Sequence of UniProt P08684 (P08684 whole entry): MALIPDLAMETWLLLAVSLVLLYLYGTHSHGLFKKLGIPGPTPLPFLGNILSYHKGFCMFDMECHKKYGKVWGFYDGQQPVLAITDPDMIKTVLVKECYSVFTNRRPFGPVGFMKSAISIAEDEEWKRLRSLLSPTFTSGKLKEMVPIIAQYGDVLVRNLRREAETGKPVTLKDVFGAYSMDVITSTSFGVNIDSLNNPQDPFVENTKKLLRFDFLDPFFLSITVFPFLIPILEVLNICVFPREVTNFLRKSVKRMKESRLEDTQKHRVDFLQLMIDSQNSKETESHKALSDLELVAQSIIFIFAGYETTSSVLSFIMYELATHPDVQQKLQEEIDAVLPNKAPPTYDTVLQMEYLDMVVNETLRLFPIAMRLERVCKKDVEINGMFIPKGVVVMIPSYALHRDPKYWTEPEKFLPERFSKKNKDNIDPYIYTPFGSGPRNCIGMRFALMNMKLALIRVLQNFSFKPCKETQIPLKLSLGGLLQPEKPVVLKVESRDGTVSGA

For `CCCCCCCCCCCCCCCC[n+]1ccccc1` [Cetylpyridinium bromide], the “Luciferase IC50” value [1] was “Inactive”.

With `CCN(CC)C(=O)N[C@H]1C=C2c3cccc4[nH]cc(c34)C[C@H]2N(C)C1` [(-)-(5S,8R)-Lisuride] the “Luciferase IC50” value [1] was “Inactive”.

For `CN1CCC[C@@H]1CCO[C@](C)(c1ccccc1)c1ccc(Cl)cc1` [Clemastine fumarate], the “Luciferase IC50” value [1] was “Inactive”, the “CYP1A2 IC50” value (human CYP1A2 [2]) was “Inactive” and the pIC50 (human CYP2C9 [3]; CYP2C9 IC50) was 4.65. The pIC50 (human CYP2D6 [4]) was 5.49.

`CN(C)CCN(Cc1cccs1)c1ccccn1.CN(C)CCN(Cc1cccs1)c1ccccn1.O=C(O)/C=C/C(=O)O.O=C(O)/C=C/C(=O)O.O=C(O)/C=C/C(=O)O` [Methapyrilene fumarate] showed a pIC50 (human CYP1A2 [2]) of 4.56.

In the case of `Clc1ccc(CSC(Cn2ccnc2)c2ccc(Cl)cc2Cl)cc1` (stereo not drawn) [Sulconazole nitrate], the “CYP2C9 Efficacy (in parenthesis)” value (human CYP2C9 [5]) was 0.47 ± 0.07 (-107 ± 1) %, the “CYP2C19 Efficacy (in parenthesis)” value (human CYP2C19 [6]) was 0.16 ± 0.07 (-121 ± 4) % and the pIC50 (human CYP2C19 [7]; [10]) was 6.80. For the same molecule, the pIC50 (human CYP2C9 [3]; [11]) was 6.33.

For `CC(C)n1nc(-c2cc3cc(O)ccc3[nH]2)c2c(N)ncnc21` [PP242], the “CYP2C9 Efficacy” value (human CYP2C9 [5]) was 3.14 ± 0.72 (-109 ± 14) %, the pIC50 (human CYP2C9 [5]) was 5.50 and the “CYP2D6 Efficacy” value (human CYP2D6 [8]) was 10.31 ± 17.83 (-9 ± 102) %. The pIC50 (human CYP2D6 [8]) was 4.99, the “CYP2C19 Efficacy” value (human CYP2C19 [6]) was 0.56 ± 0.12 (-126 ± 11) % and the pIC50 (human CYP2C19 [6]) was 6.25. The pIC50 (human CYP1A2 [2]) was 5.13.

In the case of `Clc1ccc(CO/N=C(\Cn2ccnc2)c2ccc(Cl)cc2Cl)c(Cl)c1` [Oxiconazole nitrate], the “CYP2C9 Efficacy (in parenthesis)” value (human CYP2C9 [5]) was 0.46 ± 0.06 (-94 ± 3) %, the pIC50 (human CYP1A2 [9]; CYP1A2 IC50 (half-maximal inhibitory concentration)) was 5.42 and the “CYP2C19 Efficacy (in parenthesis)” value (human CYP2C19 [6]) was 0.02 ± 0.01 (-148 ± 6) %. For the same molecule, the pIC50 (human CYP2C19 [7]; [10]) was 7.70, the “CYP1A2 Efficacy (in parenthesis)” value (human CYP1A2 [2]; human) was 3.82 ± 0.48 (-94 ± 9) % and the pIC50 (human CYP2C9 [3]; [11]) was 6.34.

In the case of `CC(C)(C)c1ccc(C(=O)CCCN2CCC(OC(c3ccccc3)c3ccccc3)CC2)cc1` [Ebastine], the AC50 (CYP3A4) was 8.15 µM, the AC50 (human CYP2C19 [7]; CYP2C19 AC50 (half-maximal activity concentration)) was 20.6 µM and the AC50 (human CYP2D6 [4]; CYP2D6 AC50 (half-maximal activity concentration)) was 17 µM.

`CN(C)CCOC(c1ccccc1)c1ccccc1.Cn1c(=O)c2[nH]c(Cl)nc2n(C)c1=O` [Dimenhydrinate] was tested, and the “Luciferase IC50 (half-maximal inhibitory concentration)” value [1] was “Inactive”.

In the case of `CCN(CC)CCOC(=O)C1(C2CCCCC2)CCCCC1` [Dicyclomine], the pIC50 (human CYP1A2 [9]; CYP1A2 IC50) was 4.95, the “Luciferase IC50” value [1] was “Inactive” and the pIC50 (human CYP2C19 [7]; CYP2C19 IC50) was 4.97. The pIC50 (human CYP2C9 [3]; CYP2C9 IC50) was 4.48 and the pIC50 (human CYP2D6 [4]) was 5.39.
